# Data as given in the supplement of paper PMC12645437, “Orthogonal IMiD-Degron Pairs Induce Selective Protein Degradation in Cells” (ACS Chemical Biology, 2025).
# Some of the results follow.
# Biological target: no compound (DMSO)
# Assay: log2 fold change of degron read counts, EGFP-low vs EGFP+ sorted cells; higher = lower degron-EGFP level without compound (poor expression or instability)
# Conditions: compound: DMSO control; 18 h
# 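Also: jurkat cells carrying a lentiviral library of mutant zinc finger degrons fused to EGFP plus mCherry, mCherry+ cells FACS sorted, degron abundance counted by next-generation sequencing.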
row,Sequence,log2 fold change of degron read counts
1,FECDVCGASFTQKGNLLRHIKL,-2.12
2,FVCEICGARFTQKGNLLRHIKL,-0.842
3,LHCNQCGFKCTQKGNLLRHIKL,0.391
4,FNCDVCGANFTQKGNLLRHIKL,-2.42
5,FYCDVCGAGFTQKGNLLRHIKL,-0.694
6,FMCPVCGARFTQKGNLLRHIKL,-0.509
7,FKCNVCGAAFTQKGNLLRHIKL,-0.871
8,FSCPICGAMFTQKGNLLRHIKL,0.537
9,LYCEICGFTCTQKGNLLRHIKL,0.0527
10,LMCEICGFICTQKGNLLRHIKL,0.195
11,FVCNQCGHWFTQKGNLLRHIKL,-0.594
12,FQCNICGACFTQKGNLLRHIKL,-0.978
13,FLCPQCGAFFTQKGNLLRHIKL,0.668
14,FQCNQCGHQFTQKGNLLRHIKL,-1.26
